# Some of the results follow.
# B1: Sebin2 (Coprinopsis cinerea), A8PE78 (protein)
# chain: MTTPFYAYCHNVQDDNTWRLGLVFANRSTADEWWRAISEATSSIPITKSITRVTPQYYTHDIRVWNMYNFFVDGNIKSISDKFRGRLFITLEYDRSGRGVSVFPPLHIVDHVSGNWYYIRSKTAPHLFWFYDETRNAIYASKEKRTRFKVSIRNPSPQTPKDAIMINSDDVVIHIKESLYVGVDSYLGHIIPTRAYRTFKFGELEGGAIAGIEVAENAEERCSSTFDGASLYFVGPDSSSPGEPWELV
# Assays:
# Assay in all cases: glycan array binding signal (z-score within array); higher = stronger binding
# Conditions in all cases: glycan notation: IUPAC condensed, linker removed
# [1] = molecular target: Gal(a1-3)Gal(b1-4)GlcNAc
# How it was run: (§1)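 The binding signal is a Z-score computed within each array and averaged over linkers. Arrays of the same protein sequence at different concentrations or buffers were also averaged together. Data originate from 3228 arrays in the Consortium for Functional Glycomics database, kept only where the protein sequence was available.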
# [2] = molecular target: Gal(a1-3)Gal(b1-4)GlcNAc(b1-2)Man
# How it was run: as §1
# [3] = molecular target: Gal(a1-3)Gal(b1-4)GlcNAc(b1-2)Man(a1-3)[Gal(a1-3)Gal(b1-4)GlcNAc(b1-2)Man(a1-6)]Man(b1-4)GlcNAc(b1-4)GlcNAc
# How it was run: as §1
# [4] = molecular target: Gal(a1-3)Gal(b1-4)GlcNAc(b1-3)GalNAc
# How it was run: as §1
# [5] = molecular target: Gal(a1-3)Gal(b1-4)GlcNAc(b1-6)GalNAc
# How it was run: as §1
# [6] = molecular target: Gal(a1-3)Gal(b1-4)[Fuc(a1-3)]GlcNAc
# How it was run: as §1
# [7] = molecular target: Gal(a1-3)Gal(b1-4)[Fuc(a1-3)]GlcNAc(b1-2)Man(a1-3)[Gal(a1-3)Gal(b1-4)[Fuc(a1-3)]GlcNAc(b1-2)Man(a1-6)]Man(b1-4)GlcNAc(b1-4)GlcNAc
# How it was run: as §1
# [8] = molecular target: Gal(a1-3)GalNAc
# How it was run: as §1
# [9] = molecular target: Gal(a1-3)[Gal(a1-4)]Gal(b1-4)GlcNAc
# How it was run: as §1
# [10] = molecular target: Gal(a1-4)Gal(b1-3)GlcNAc(b1-2)Man(a1-3)[Gal(a1-4)Gal(b1-3)GlcNAc(b1-2)Man(a1-6)]Man(b1-4)GlcNAc(b1-4)GlcNAc
# How it was run: as §1
# [11] = molecular target: Gal(a1-4)Gal(b1-4)Glc
# How it was run: as §1
# [12] = molecular target: Gal(a1-4)Gal(b1-4)GlcNAc
# How it was run: as §1
# [13] = molecular target: Gal(a1-4)Gal(b1-4)GlcNAc(b1-2)Man(a1-3)[Gal(a1-4)Gal(b1-4)GlcNAc(b1-2)Man(a1-6)]Man(b1-4)GlcNAc(b1-4)GlcNAc
# How it was run: as §1
# [14] = molecular target: Gal(a1-4)Gal(b1-4)GlcNAc(b1-3)Gal(b1-4)Glc
# How it was run: as §1
# [15] = molecular target: Gal(a1-4)GlcNAc
# How it was run: as §1
# [16] = molecular target: Gal(a1-6)Glc
# How it was run: as §1
# [17] = molecular target: Gal(b1-2)Gal
# How it was run: as §1
# [18] = molecular target: Gal(b1-3)Gal
# How it was run: as §1
# [19] = molecular target: Gal(b1-3)Gal(b1-4)GlcNAc
# How it was run: as §1
# [20] = molecular target: Gal(b1-3)GalNAc
# How it was run: as §1
# [21] = molecular target: Gal(b1-3)GalNAc(a1-3)[Fuc(a1-2)]Gal(b1-4)Glc
# How it was run: as §1
# [22] = molecular target: Gal(b1-3)GalNAc(a1-3)[Fuc(a1-2)]Gal(b1-4)GlcNAc
# How it was run: as §1
# [23] = molecular target: Gal(b1-3)GalNAc(b1-3)Gal
# How it was run: as §1
# [24] = molecular target: Gal(b1-3)GalNAc(b1-3)Gal(a1-4)Gal(b1-4)Glc
# How it was run: as §1
# [25] = molecular target: Gal(b1-3)GalNAc(b1-4)Gal(b1-4)Glc
# How it was run: as §1
# [26] = molecular target: Gal(b1-3)GalNAc(b1-4)[Neu5Ac(a2-3)]Gal(b1-4)Glc
# How it was run: as §1
# [27] = molecular target: Gal(b1-3)GlcNAc
# How it was run: as §1
# [28] = molecular target: Gal(b1-3)GlcNAc(a1-3)Gal(b1-4)GlcNAc
# How it was run: as §1
# [29] = molecular target: Gal(b1-3)GlcNAc(a1-6)Gal(b1-4)GlcNAc
# How it was run: as §1
# [30] = molecular target: Gal(b1-3)GlcNAc(b1-2)Man
# How it was run: as §1
# [31] = molecular target: Gal(b1-3)GlcNAc(b1-2)Man(a1-3)[Gal(b1-3)GlcNAc(b1-2)Man(a1-6)]Man(b1-4)GlcNAc(b1-4)GlcNAc
# How it was run: as §1
# [32] = molecular target: Gal(b1-3)GlcNAc(b1-2)Man(a1-3)[Gal(b1-3)GlcNAc(b1-2)Man(a1-6)]Man(b1-4)GlcNAc(b1-4)[Fuc(a1-6)]GlcNAc
# How it was run: as §1
# [33] = molecular target: Gal(b1-3)GlcNAc(b1-2)Man(a1-3)[GlcNAc(b1-4)][Gal(b1-3)GlcNAc(b1-2)Man(a1-6)]Man(b1-4)GlcNAc(b1-4)GlcNAc
# How it was run: as §1
# [34] = molecular target: Gal(b1-3)GlcNAc(b1-2)[Gal(b1-3)GlcNAc(b1-6)]Man(a1-6)[Gal(b1-3)GlcNAc(b1-2)Man(a1-3)]Man(b1-4)GlcNAc(b1-4)GlcNAc
# How it was run: as §1
# [35] = molecular target: Gal(b1-3)GlcNAc(b1-3)Gal(b1-3)GlcNAc
# How it was run: as §1
# [36] = molecular target: Gal(b1-3)GlcNAc(b1-3)Gal(b1-4)Glc
# How it was run: as §1
# [37] = molecular target: Gal(b1-3)GlcNAc(b1-3)Gal(b1-4)GlcNAc
# How it was run: as §1
binder,measurement,setting,value
B1,glycan array binding signal (z-score),[1],-0.418
same,glycan array binding signal (z-score),[2],-0.374
same,glycan array binding signal (z-score),[3],-0.078
same,glycan array binding signal (z-score),[4],0.034
same,glycan array binding signal (z-score),[5],-0.161
same,glycan array binding signal (z-score),[6],-0.524
same,glycan array binding signal (z-score),[7],-0.059
same,glycan array binding signal (z-score),[8],-0.537
same,glycan array binding signal (z-score),[9],0.228
same,glycan array binding signal (z-score),[10],-0.075
same,glycan array binding signal (z-score),[11],0.235
same,glycan array binding signal (z-score),[12],-0.24
same,glycan array binding signal (z-score),[13],0.333
same,glycan array binding signal (z-score),[14],-0.197
same,glycan array binding signal (z-score),[15],-0.432
same,glycan array binding signal (z-score),[16],-0.281
same,glycan array binding signal (z-score),[17],-0.151
same,glycan array binding signal (z-score),[18],-0.168
same,glycan array binding signal (z-score),[19],0.27
same,glycan array binding signal (z-score),[20],-0.281
same,glycan array binding signal (z-score),[21],-0.394
same,glycan array binding signal (z-score),[22],-0.521
same,glycan array binding signal (z-score),[23],-0.148
same,glycan array binding signal (z-score),[24],0.232
same,glycan array binding signal (z-score),[25],-0.071
same,glycan array binding signal (z-score),[26],-0.265
same,glycan array binding signal (z-score),[27],-0.383
same,glycan array binding signal (z-score),[28],0.038
same,glycan array binding signal (z-score),[29],0.015
same,glycan array binding signal (z-score),[30],-0.233
same,glycan array binding signal (z-score),[31],0.372
same,glycan array binding signal (z-score),[32],-0.246
same,glycan array binding signal (z-score),[33],-0.222
same,glycan array binding signal (z-score),[34],1.02
same,glycan array binding signal (z-score),[35],-0.397
same,glycan array binding signal (z-score),[36],-0.226
same,glycan array binding signal (z-score),[37],-0.315
